Data as given in a collection of fitness landscapes (doi:10.1016/j.celrep.2020.107928).
In all, about 81,000 sequences were measured (“one-hybrid fitness for binding parS DNA”: median about -0.17, highest 2% from about 0.51 on). The list shows a part of the results.

B1: Caulobacter ParB omega fusion; a variant is named by its letters at X, in order, B8GW30 (parent)
chain: MESVVVGEPGMSEGRRGLGRGLSALLGEVDAAPAQAPGEQLGGSREAPIEILQRNPDQPRRTFREEDLEDLSNSIREKGVLQPILVRPSPDTAGEYQIVAGERAWRAAQRAGLKTVPIMVRELDDLAVLEIGIIENVQRADLNVLEEALSYKVLMEKFERTQENIAQTIGKSXSHVANXMRLLXLPDEVQSYLVSGELTAXHARAIAAAADPVALAKQIIEGGLSVRETEALARKAPNLSAGKSKGGRPPRVKDTDTQALESDLSSVLGLDVSIDHRGSTGTLTITYATLEQLDDLCNRLTRGI

Variants of: B1
Experiment: one-hybrid fitness for binding parS DNA (scaled: cognate 1, non-cognate 0); higher = stronger binding
Settings: with parS DNA site
Procedure, shortened: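 Selection: bacterial one-hybrid in E. coli USO, HIS3 reporter with the site 19 bp from the promoter, 48 hours at 37°C on M9-minus-histidine plus 0.1 mM IPTG and 5 mM 3-AT. Libraries were Caulobacter ParB with four randomised specificity codons, sequenced on Illumina before and after selection. Fitness is the rescaled log change in variant-to-wild-type read ratio, anchored to the cognate and non-cognate sites.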

Variant	one-hybrid fitness for binding parS DNA
WVYS	≤ 0.2
WLLV	≤ 0.2
TAKH	≤ 0.2
TTTR	≤ 0.2
DYQV	≤ 0.2
HKHS	≤ 0.2
CRFK	≤ 0.2
VMHR	≤ 0.2
SLKY	≤ 0.2
MNGC	≤ 0.2
AKSE	≤ 0.2
SRPV	≤ 0.2
REPY	≤ 0.2
RSYR	≤ 0.2
KFMR	≤ 0.2
IGPC	≤ 0.2
ACFG	≤ 0.2
MNKT	≤ 0.2
GLNA	≤ 0.2
TNLK	≤ 0.2
KITT	≤ 0.2
LRMH	≤ 0.2
GCLS	≤ 0.2
AHKG	≤ 0.2
VQTN	≤ 0.2
WIYT	≤ 0.2

Variant	one-hybrid fitness for binding parS DNA
QSWR	≤ 0.2
QRRV	≤ 0.2
GQKS	≤ 0.2
KQRY	≤ 0.2
NCKC	≤ 0.2
PSIC	≤ 0.2
QNHK	≤ 0.2
ASPS	≤ 0.2
PPGS	≤ 0.2
AVNA	≤ 0.2
VMNR	≤ 0.2
QEHN	≤ 0.2
PNLM	≤ 0.2
KCKG	≤ 0.2
DRLI	≤ 0.2
LKMV	≤ 0.2
FLTC	≤ 0.2
TAAG	≤ 0.2
PYYD	≤ 0.2
KWDG	≤ 0.2
TVTG	≤ 0.2
FGMS	≤ 0.2
CMVY	≤ 0.2
THSF	≤ 0.2
TQRS	≤ 0.2
LLTA	≤ 0.2

Variant	one-hybrid fitness for binding parS DNA
TPCN	≤ 0.2
FSTR	≤ 0.2
FMDS	≤ 0.2
HSKL	≤ 0.2
LHWG	≤ 0.2
CRNH	≤ 0.2
PWIT	≤ 0.2
KTHC	≤ 0.2
QNQC	≤ 0.2
ASCT	≤ 0.2
NAVN	≤ 0.2
HYSR	≤ 0.2
VLTG	≤ 0.2
WTEG	≤ 0.2
YLPY	≤ 0.2
RGHY	≤ 0.2
YSNG	≤ 0.2
GNYR	≤ 0.2
DMKY	≤ 0.2
QPYQ	≤ 0.2
QGGD	≤ 0.2
VTKL	≤ 0.2
RDWY	≤ 0.2
RLSM	0.329
WPLE	≤ 0.2
RHSR	≤ 0.2

Variant	one-hybrid fitness for binding parS DNA
PGPY	≤ 0.2
LWSK	≤ 0.2
KSDY	≤ 0.2
PRNW	≤ 0.2
NYWS	≤ 0.2
RKQK	≤ 0.2
NNMQ	≤ 0.2
QQTC	≤ 0.2
DARS	≤ 0.2
AESC	≤ 0.2
DRGM	≤ 0.2
KTCQ	≤ 0.2
PLIW	≤ 0.2
DQMV	≤ 0.2
RCYY	0.472
NGPT	≤ 0.2
RLCE	≤ 0.2
PPRM	≤ 0.2
MRKC	≤ 0.2
APVI	≤ 0.2
RILH	≤ 0.2
QSGE	≤ 0.2
HVTK	≤ 0.2
HSYF	≤ 0.2
HAMF	≤ 0.2
DRIW	≤ 0.2

Variant	one-hybrid fitness for binding parS DNA
LLGA	≤ 0.2
HMSA	≤ 0.2
THTS	≤ 0.2
SCLT	≤ 0.2
PTMG	≤ 0.2
FEAM	≤ 0.2
QVKQ	≤ 0.2
EWAR	≤ 0.2
VCAV	≤ 0.2
QPYD	≤ 0.2
AVTF	≤ 0.2
MAQL	≤ 0.2
FKHT	≤ 0.2
FPAI	≤ 0.2
PSHI	≤ 0.2
WAGS	≤ 0.2
TALV	≤ 0.2
STTA	≤ 0.2
SPSV	≤ 0.2
GTRV	≤ 0.2
HTLC	≤ 0.2
PRTP	≤ 0.2
GMAC	≤ 0.2
FSNW	≤ 0.2
CFRC	≤ 0.2
DLVT	≤ 0.2

Variant	one-hybrid fitness for binding parS DNA
GPFT	≤ 0.2
GMDS	≤ 0.2
ANIF	≤ 0.2
NKIK	≤ 0.2
NLNW	≤ 0.2
NNVG	≤ 0.2
KDRF	≤ 0.2
KDQR	≤ 0.2
NAHC	≤ 0.2
LGKW	≤ 0.2
VIYG	≤ 0.2
PLQT	≤ 0.2
NGLF	≤ 0.2
STTS	≤ 0.2
QAGG	≤ 0.2
QVPI	≤ 0.2
ICTF	≤ 0.2
WCGV	≤ 0.2
NHRA	≤ 0.2
LGAW	≤ 0.2
LNLP	≤ 0.2
PYPR	≤ 0.2
TRPD	≤ 0.2
